Experimental data from the supplement of paper PMC4604168 (melanoma cell lines).
Some of the results follow. Repeats are few or missing, and single values can be far off.

Tests used:
Assay in all cases: cell count relative to DMSO control; melanoma cells; higher = more viable cells
Conditions in all cases: library dose: standard library concentration; 72 h
G361 = test system: G361
IPC-298 = test system: IPC-298
IST-MEL1 = test system: IST-MEL1
LB2518-MEL = test system: LB2518-MEL
LOXIMVI = test system: LOXIMVI
MEL-HO = test system: MEL-HO
MZ2-MEL = test system: MZ2-MEL
MeWo = test system: MeWo
RPMI7951 = test system: RPMI7951
RVH-421 = test system: RVH-421
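Note: cells treated in 1,536-well plates, then fixed and DAPI-stained, with nuclei counted from automated high-throughput microscope images.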

| Structure (SMILES) | cell count (G361) | cell count (IPC-298) | cell count (IST-MEL1) | cell count (LB2518-MEL) | cell count (LOXIMVI) | cell count (MEL-HO) | cell count (MZ2-MEL) | cell count (MeWo) | cell count (RPMI7951) | cell count (RVH-421) |
| --- | --- | --- | --- | --- | --- | --- | --- | --- | --- | --- |
| CC[C@]1(O)C[C@H]2CN(CCc3c([nH]c4ccccc34)[C@@](C(=O)OC)(c3cc4c(cc3OC)N(C=O)[C@H]3[C@@](O)(C(=O)OC)[C@H](OC(C)=O)[C@]5(CC)C=CCN6CC[C@]43[C@@H]65)C2)C1 [vincristine] + CCCS(=O)(=O)Nc1ccc(F)c(C(=O)c2c[nH]c3ncc(Cl)cc23)c1F [PLX4720] (first compound 0.0005 µM, partner dose 0.4 µM) | 63.6% | 69.6% | 93.3% | 91.1% | 86.7% | 86.7% | 83.8% | 123% | 80.2% | 75.5% |
| N#CC[C@H](C1CCCC1)n1cc(-c2ncnc3[nH]ccc23)cn1 [ruxolitinib] + NC1(c2ccc(-c3nc4ccn5c(=O)[nH]nc5c4cc3-c3ccccc3)cc2)CCC1 [MK2206] (first compound 5 µM, partner dose 2 µM) | 75.6% | 86.1% | 105% |  | 95.4% | 67% |  | 77% | 72.2% | 75% |
| N#CC[C@H](C1CCCC1)n1cc(-c2ncnc3[nH]ccc23)cn1 [ruxolitinib] + CCCCCCCCc1ccc(CCC(N)(CO)CO)cc1 [fingolimod] (first compound 5 µM, partner dose 10 µM) | 0.296% | 37.7% | 5.26% | 0.195% | 9.75% | 1.78% | 0.556% | 38.7% | 3.76% | 54.6% |
| CC[C@]1(O)C[C@H]2CN(CCc3c([nH]c4ccccc34)[C@@](C(=O)OC)(c3cc4c(cc3OC)N(C=O)[C@H]3[C@@](O)(C(=O)OC)[C@H](OC(C)=O)[C@]5(CC)C=CCN6CC[C@]43[C@@H]65)C2)C1 [vincristine] + CO[C@@H]1[C@H](N(C)C(=O)c2ccccc2)C[C@H]2O[C@]1(C)n1c3ccccc3c3c4c(c5c6ccccc6n2c5c31)C(=O)NC4 [Midostaurin] (first compound 0.0005 µM, partner dose 0.4 µM) | 54.9% | 74.7% | 75.6% | 65.5% | 51.9% | 83.6% | 79.6% | 69.6% | 46.3% | 65.2% |
